# The other results are listed elsewhere or left out.
# How the values were obtained:
# Assay in all cases: glycan array binding signal (z-score within array); higher = stronger binding
# Details in all cases: glycan notation: IUPAC condensed, linker removed
# [1] = target: Gal(b1-4)GlcNAc(b1-2)[Gal(b1-4)GlcNAc(b1-6)]Man(a1-6)[GlcNAc(b1-4)][Gal(b1-4)GlcNAc(b1-2)Man(a1-3)]Man(b1-4)GlcNAc(b1-4)GlcNAc
# Method in brief: (§1)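 Glycan array data were curated from 3228 arrays in the Consortium for Functional Glycomics database and kept only where the protein sequence was available. Glycan names were converted to IUPAC-condensed notation, and columns mapping to the same glycan were averaged. The binding signal is a within-array Z-score, averaged across arrays of the same protein sequence at different concentrations or buffers and across linkers. Negative Z-scores can be read as non-binding.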
# [2] = target: Gal(b1-4)GlcNAc(b1-2)[Gal(b1-4)GlcNAc(b1-6)]Man(a1-6)[GlcNAc(b1-4)][Gal(b1-4)GlcNAc(b1-2)[Gal(b1-4)GlcNAc(b1-4)]Man(a1-3)]Man(b1-4)GlcNAc(b1-4)[Fuc(a1-6)]GlcNAc
# Method in brief: as §1
# [3] = target: Gal(b1-4)GlcNAc(b1-3)Gal(b1-3)GalNAc
# Method in brief: as §1
# [4] = target: Gal(b1-4)GlcNAc(b1-3)Gal(b1-3)GlcNAc
# Method in brief: as §1
# [5] = target: Gal(b1-4)GlcNAc(b1-3)Gal(b1-4)Glc
# Method in brief: as §1
# [6] = target: Gal(b1-4)GlcNAc(b1-3)Gal(b1-4)GlcNAc
# Method in brief: as §1
# [7] = target: Gal(b1-4)GlcNAc(b1-3)Gal(b1-4)GlcNAc(b1-2)Man(a1-3)[Gal(b1-4)GlcNAc(b1-3)Gal(b1-4)GlcNAc(b1-2)Man(a1-6)]Man(b1-4)GlcNAc(b1-4)GlcNAc
# Method in brief: as §1
# [8] = target: Gal(b1-4)GlcNAc(b1-3)Gal(b1-4)GlcNAc(b1-2)Man(a1-3)[Gal(b1-4)GlcNAc(b1-3)Gal(b1-4)GlcNAc(b1-2)Man(a1-6)]Man(b1-4)GlcNAc(b1-4)[Fuc(a1-6)]GlcNAc
# Method in brief: as §1
# [9] = target: Gal(b1-4)GlcNAc(b1-3)Gal(b1-4)GlcNAc(b1-2)[Gal(b1-4)GlcNAc(b1-3)Gal(b1-4)GlcNAc(b1-6)]Man(a1-6)[Gal(b1-4)GlcNAc(b1-3)Gal(b1-4)GlcNAc(b1-2)Man(a1-3)]Man(b1-4)GlcNAc(b1-4)GlcNAc
# Method in brief: as §1
# [10] = target: Gal(b1-4)GlcNAc(b1-3)Gal(b1-4)GlcNAc(b1-2)[Gal(b1-4)GlcNAc(b1-3)Gal(b1-4)GlcNAc(b1-6)]Man(a1-6)[Gal(b1-4)GlcNAc(b1-3)Gal(b1-4)GlcNAc(b1-2)Man(a1-3)]Man(b1-4)GlcNAc(b1-4)[Fuc(a1-6)]GlcNAc
# Method in brief: as §1
# [11] = target: Gal(b1-4)GlcNAc(b1-3)Gal(b1-4)GlcNAc(b1-3)Gal(b1-4)GlcNAc
# Method in brief: as §1
# [12] = target: Gal(b1-4)GlcNAc(b1-3)Gal(b1-4)GlcNAc(b1-3)Gal(b1-4)GlcNAc(b1-2)Man(a1-3)[Gal(b1-4)GlcNAc(b1-3)Gal(b1-4)GlcNAc(b1-3)Gal(b1-4)GlcNAc(b1-2)Man(a1-6)]Man(b1-4)GlcNAc(b1-4)GlcNAc
# Method in brief: as §1
# [13] = target: Gal(b1-4)GlcNAc(b1-3)Gal(b1-4)GlcNAc(b1-3)Gal(b1-4)GlcNAc(b1-2)Man(a1-3)[Gal(b1-4)GlcNAc(b1-3)Gal(b1-4)GlcNAc(b1-3)Gal(b1-4)GlcNAc(b1-2)Man(a1-6)]Man(b1-4)GlcNAc(b1-4)[Fuc(a1-6)]GlcNAc
# Method in brief: as §1
# [14] = target: Gal(b1-4)GlcNAc(b1-3)Gal(b1-4)GlcNAc(b1-3)Gal(b1-4)GlcNAc(b1-2)[Gal(b1-4)GlcNAc(b1-3)Gal(b1-4)GlcNAc(b1-3)Gal(b1-4)GlcNAc(b1-6)]Man(a1-6)[Gal(b1-4)GlcNAc(b1-3)Gal(b1-4)GlcNAc(b1-3)Gal(b1-4)GlcNAc(b1-2)Man(a1-3)]Man(b1-4)GlcNAc(b1-4)[Fuc(a1-6)]GlcNAc
# Method in brief: as §1
# [15] = target: Gal(b1-4)GlcNAc(b1-3)Gal(b1-4)GlcNAc(b1-3)Gal(b1-4)GlcNAc(b1-3)Gal(b1-4)GlcNAc(b1-2)Man(a1-3)[Gal(b1-4)GlcNAc(b1-3)Gal(b1-4)GlcNAc(b1-3)Gal(b1-4)GlcNAc(b1-3)Gal(b1-4)GlcNAc(b1-2)Man(a1-6)]Man(b1-4)GlcNAc(b1-4)GlcNAc
# Method in brief: as §1
# [16] = target: Gal(b1-4)GlcNAc(b1-3)Gal(b1-4)GlcNAc(b1-3)Gal(b1-4)GlcNAc(b1-3)Gal(b1-4)GlcNAc(b1-2)Man(a1-3)[Gal(b1-4)GlcNAc(b1-3)Gal(b1-4)GlcNAc(b1-3)Gal(b1-4)GlcNAc(b1-3)Gal(b1-4)GlcNAc(b1-2)Man(a1-6)]Man(b1-4)GlcNAc(b1-4)[Fuc(a1-6)]GlcNAc
# Method in brief: as §1
# [17] = target: Gal(b1-4)GlcNAc(b1-3)Gal(b1-4)GlcNAc(b1-3)Gal(b1-4)GlcNAc(b1-3)Gal(b1-4)GlcNAc(b1-2)[Gal(b1-4)GlcNAc(b1-3)Gal(b1-4)GlcNAc(b1-3)Gal(b1-4)GlcNAc(b1-3)Gal(b1-4)GlcNAc(b1-6)]Man(a1-6)[Gal(b1-4)GlcNAc(b1-3)Gal(b1-4)GlcNAc(b1-3)Gal(b1-4)GlcNAc(b1-3)Gal(b1-4)GlcNAc(b1-2)Man(a1-3)]Man(b1-4)GlcNAc(b1-4)[Fuc(a1-6)]GlcNAc
# Method in brief: as §1
# [18] = target: Gal(b1-4)GlcNAc(b1-3)Gal(b1-4)GlcNAc(b1-3)Gal(b1-4)GlcNAc(b1-3)Gal(b1-4)GlcNAc(b1-3)Gal(b1-4)GlcNAc(b1-2)Man(a1-3)[Gal(b1-4)GlcNAc(b1-3)Gal(b1-4)GlcNAc(b1-3)Gal(b1-4)GlcNAc(b1-3)Gal(b1-4)GlcNAc(b1-3)Gal(b1-4)GlcNAc(b1-2)Man(a1-6)]Man(b1-4)GlcNAc(b1-4)GlcNAc
# Method in brief: as §1
# [19] = target: Gal(b1-4)GlcNAc(b1-3)Gal(b1-4)GlcNAc(b1-3)Gal(b1-4)GlcNAc(b1-3)Gal(b1-4)GlcNAc(b1-3)Gal(b1-4)GlcNAc(b1-2)Man(a1-3)[Gal(b1-4)GlcNAc(b1-3)Gal(b1-4)GlcNAc(b1-3)Gal(b1-4)GlcNAc(b1-3)Gal(b1-4)GlcNAc(b1-3)Gal(b1-4)GlcNAc(b1-2)Man(a1-6)]Man(b1-4)GlcNAc(b1-4)[Fuc(a1-6)]GlcNAc
# Method in brief: as §1
# [20] = target: Gal(b1-4)GlcNAc(b1-3)Gal(b1-4)GlcNAc(b1-3)Gal(b1-4)GlcNAc(b1-3)Gal(b1-4)GlcNAc(b1-3)Gal(b1-4)GlcNAc(b1-2)[Gal(b1-4)GlcNAc(b1-3)Gal(b1-4)GlcNAc(b1-3)Gal(b1-4)GlcNAc(b1-3)Gal(b1-4)GlcNAc(b1-3)Gal(b1-4)GlcNAc(b1-6)]Man(a1-6)[Gal(b1-4)GlcNAc(b1-3)Gal(b1-4)GlcNAc(b1-3)Gal(b1-4)GlcNAc(b1-3)Gal(b1-4)GlcNAc(b1-3)Gal(b1-4)GlcNAc(b1-2)Man(a1-3)]Man(b1-4)GlcNAc(b1-4)[Fuc(a1-6)]GlcNAc
# Method in brief: as §1
# [21] = target: Gal(b1-4)GlcNAc(b1-3)Gal(b1-4)GlcNAc(b1-3)Gal(b1-4)GlcNAc(b1-3)Gal(b1-4)GlcNAc(b1-3)Gal(b1-4)GlcNAc(b1-3)Gal(b1-4)GlcNAc(b1-2)Man(a1-3)[Gal(b1-4)GlcNAc(b1-3)Gal(b1-4)GlcNAc(b1-3)Gal(b1-4)GlcNAc(b1-3)Gal(b1-4)GlcNAc(b1-3)Gal(b1-4)GlcNAc(b1-3)Gal(b1-4)GlcNAc(b1-2)Man(a1-6)]Man(b1-4)GlcNAc(b1-4)GlcNAc
# Method in brief: as §1
# [22] = target: Gal(b1-4)GlcNAc(b1-3)Gal(b1-4)GlcNAc(b1-3)GalNAc
# Method in brief: as §1
binder,measurement,setting,value
"LTL (Lotus tetragonolobus), P19664 (protein) VSFNYTEFKDDGSLILQGDAKIWTDGRLAMPTDPLVNNPKTTRSAGRALYATPVPIWDSATGNVASFVTSFNFLFVIRELKYTPTDGLVFFLAPVGTEIPSGSTGGFLGIFDGSNGFNQFVAVEFDSYHNIWDPKSLRSSHVGIDVNSIMSLKAVNWNRVSGSLEKATIIYDSQTNILSVVMTSQNGQITTIYGTIDLKTVLPEKVSVGFSATTGNPEREKHDIYSWSFTSTLKEPEEQA",glycan array binding signal (z-score),[1],-0.318
same,glycan array binding signal (z-score),[2],-0.359
same,glycan array binding signal (z-score),[3],0.215
same,glycan array binding signal (z-score),[4],-0.02
same,glycan array binding signal (z-score),[5],-0.016
same,glycan array binding signal (z-score),[6],-0.31
same,glycan array binding signal (z-score),[7],1.51
same,glycan array binding signal (z-score),[8],0.588
same,glycan array binding signal (z-score),[9],-0.094
same,glycan array binding signal (z-score),[10],0.129
same,glycan array binding signal (z-score),[11],-0.226
same,glycan array binding signal (z-score),[12],3.1
same,glycan array binding signal (z-score),[13],0.526
same,glycan array binding signal (z-score),[14],0.388
same,glycan array binding signal (z-score),[15],0.014
same,glycan array binding signal (z-score),[16],0.525
same,glycan array binding signal (z-score),[17],-0.187
same,glycan array binding signal (z-score),[18],-0.131
same,glycan array binding signal (z-score),[19],-0.233
same,glycan array binding signal (z-score),[20],0.195
same,glycan array binding signal (z-score),[21],-0.093
same,glycan array binding signal (z-score),[22],2.04
